In all, about 33,000 sequences were measured (“E-score (-0.5 to 0.5)”: median about -0.011, highest 2% from about 0.28 on). The list shows a part of the results.

We go through 86 sequences from the supplement of paper PMC3334620.

In the assay the target is T1, Gcr1 (UniProt P07261).
T1 sequence: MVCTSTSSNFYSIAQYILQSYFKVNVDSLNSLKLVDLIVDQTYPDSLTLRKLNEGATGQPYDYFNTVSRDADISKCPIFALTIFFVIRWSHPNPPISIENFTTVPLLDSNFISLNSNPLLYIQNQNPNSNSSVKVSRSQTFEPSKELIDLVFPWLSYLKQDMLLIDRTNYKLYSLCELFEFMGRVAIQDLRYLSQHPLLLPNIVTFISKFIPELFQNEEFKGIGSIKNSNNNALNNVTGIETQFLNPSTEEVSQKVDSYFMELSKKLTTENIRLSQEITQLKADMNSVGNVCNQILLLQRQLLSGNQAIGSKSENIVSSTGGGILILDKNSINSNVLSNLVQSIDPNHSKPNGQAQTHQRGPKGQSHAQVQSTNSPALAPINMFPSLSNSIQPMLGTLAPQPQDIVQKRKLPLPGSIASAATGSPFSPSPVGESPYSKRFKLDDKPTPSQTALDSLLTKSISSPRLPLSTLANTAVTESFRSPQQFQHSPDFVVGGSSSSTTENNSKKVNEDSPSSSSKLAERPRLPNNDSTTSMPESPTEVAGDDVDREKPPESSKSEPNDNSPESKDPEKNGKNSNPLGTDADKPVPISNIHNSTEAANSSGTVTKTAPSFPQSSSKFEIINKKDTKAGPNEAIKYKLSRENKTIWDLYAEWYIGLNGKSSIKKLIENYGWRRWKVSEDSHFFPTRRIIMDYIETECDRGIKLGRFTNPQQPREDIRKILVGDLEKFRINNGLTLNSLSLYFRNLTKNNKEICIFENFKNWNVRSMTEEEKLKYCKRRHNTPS
In words: PBM E-score (8-mer binding enrichment) (E-score (-0.5 to 0.5)); higher = stronger / more preferred TF binding; most listed sequences are background and not binding sites. The note with it: protein concentration: 100 nM; construct: GST-full length. How it is done: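 Universal 'all 10-mer' protein binding microarrays (Agilent AMADID 015681) probed with GST-tagged S. cerevisiae TFs (full-length or DBD) made by in vitro transcription/translation (PURExpress), about 100-200 nM. Bound TF was detected with fluorescent anti-GST. Each ungapped 8-mer (which stands for itself and its reverse complement) is scored by the PBM enrichment score (E-score), a modified Wilcoxon-Mann-Whitney statistic from -0.5 to +0.5, computed with the Universal PBM Analysis Suite. Scale: above 0.35 generally sequence-specific binding.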
Turning to CTTTCCGA, the “PBM E-score” value is -0.029.

Take ATGACCGC: the “PBM E-score” value was -0.267.

Regarding CCGTTATC, the “PBM E-score” value was 0.0604.

For AGCGAAGG, the “PBM E-score” value is 0.0516.

CTCCCTAA: the “PBM E-score” value turned out to be 0.0072.

On to AATGCTCA, for which the “PBM E-score” value was -0.114.

For AGATTATC, the “PBM E-score” value is -0.00826.

For the sequence ATTACCGA, the “PBM E-score” value is -0.0014.

Take AGTCCACG: the “PBM E-score” value worked out at 0.0254.

For the sequence CACATTCG, the “PBM E-score” value was determined as 0.0517.

For ATCGGTGA, the “PBM E-score” value is -0.138.

Take AACGACAA: the “PBM E-score” value is 0.0507.

On to AAATGATG, for which the “PBM E-score” value came out at 0.115.

As to CCCTAGCG, the “PBM E-score” value is -0.0132.

Consider ACAATCAA, for which the “PBM E-score” value is 0.0129.

Take GACGGAGC: the “PBM E-score” value is -0.124.

For the sequence CAGAAAAC, the “PBM E-score” value was -0.144.

For ACGGCTCG, the “PBM E-score” value was -0.105.

Consider GTCAACAC, for which the “PBM E-score” value was -0.0186.

For AATGTACT, the “PBM E-score” value was -0.1.

As to CTAGTCCC, the “PBM E-score” value was -0.166.

Regarding CAACAGAC, the “PBM E-score” value came to 0.0712.

On to TGACGGCA, for which the “PBM E-score” value is -0.137.

Take CACCGGTA: the “PBM E-score” value amounted to 0.0678.

Consider TATTCGAA, for which the “PBM E-score” value is -0.0514.

For CAGCTGTA, the “PBM E-score” value is -0.0364.

As for GAGTCCAA, the “PBM E-score” value was 0.0728.

Regarding GTACGCAC, the “PBM E-score” value was -0.0893.

Turning to ATCACTAG, the “PBM E-score” value was -0.0141.

Regarding GGTACACC, the “PBM E-score” value is -0.189.

In the case of AATAGAAT, the “PBM E-score” value came to 0.0285.

Turning to CCATCGTC, the “PBM E-score” value was -0.127.

For CACTGGTA, the “PBM E-score” value was found to be 0.194.

AGCAGGCT: the “PBM E-score” value was -0.17.

For ATCGCCCG, the “PBM E-score” value was -0.236.

For the sequence ACCGGTCA, the “PBM E-score” value turned out to be 0.0157.

As to CCAGAACG, the “PBM E-score” value was -3e-05.

Regarding CTTGAGTC, the “PBM E-score” value was -0.0939.

Turning to ATAGAGCG, the “PBM E-score” value was -0.108.

Consider ATGGTGCA, for which the “PBM E-score” value is -0.0783.

Consider ACTGTCAA, for which the “PBM E-score” value was -0.0803.

CTTACATC: the “PBM E-score” value was found to be 0.115.

Turning to TACCGTGA, the “PBM E-score” value stood at 0.0127.

For the sequence GAGACGGA, the “PBM E-score” value was -0.114.

In the case of AATTGCCC, the “PBM E-score” value was -0.0306.

As to CTGACTTA, the “PBM E-score” value is 0.0168.

Consider ACTTCTCT, for which the “PBM E-score” value turned out to be 0.0365.

In the case of AAAGGTGA, the “PBM E-score” value is -0.0123.

Consider GGATTGCA, for which the “PBM E-score” value is 0.0824.

Regarding GGCGAGCA, the “PBM E-score” value was -0.156.

With GTCTAAAA, the “PBM E-score” value was -0.0626.

Take CCGGTGAG: the “PBM E-score” value was 0.079.

Take ACGTTTTG: the “PBM E-score” value turned out to be 0.0803.

Consider CGCGGTTA, for which the “PBM E-score” value is -0.0967.

Take AGTATGAT: the “PBM E-score” value was -0.00344.

On to TCATCGAA, for which the “PBM E-score” value is -0.267.

For CCGATCGC, the “PBM E-score” value is -0.182.

For CGAACACA, the “PBM E-score” value stood at 0.0367.

In the case of AGAGAATC, the “PBM E-score” value is -0.0452.

Consider GGGAGATA, for which the “PBM E-score” value is -0.0605.

Consider AATCGTGA, for which the “PBM E-score” value was determined as 0.0622.

As for CGGCGACG, the “PBM E-score” value amounted to 0.00981.

Regarding CGCGTTAA, the “PBM E-score” value was -0.167.

With CCTATCCG, the “PBM E-score” value is -0.106.

As for ACCGTAGG, the “PBM E-score” value is -0.161.

As to CACCCCTG, the “PBM E-score” value is -0.0447.

Take AATCGTCA: the “PBM E-score” value was -0.179.

Take GCCCGCGC: the “PBM E-score” value was -0.0425.

As to CAGGCAGG, the “PBM E-score” value was -0.143.

As to GCTAATAA, the “PBM E-score” value was determined as 0.2.

As to GATGATAC, the “PBM E-score” value turned out to be 0.00031.

For TACATACA, the “PBM E-score” value was 0.0379.

For ATAAACGG, the “PBM E-score” value is 0.113.

AGAAAAGG: the “PBM E-score” value is 0.165.

Consider CAATCGGA, for which the “PBM E-score” value came to 0.112.

Regarding CACGTCGG, the “PBM E-score” value was -0.207.

With AGTGTCGG, the “PBM E-score” value is -0.135.

On to CCTGTACG, for which the “PBM E-score” value was -0.0656.

GATGAGGC: the “PBM E-score” value was -0.0834.

Turning to AGTGGTTC, the “PBM E-score” value amounted to 0.0961.

Consider TTACCAAA, for which the “PBM E-score” value was 0.158.

In the case of ATAAAAGC, the “PBM E-score” value was determined as 0.0728.

Turning to CACGCCAA, the “PBM E-score” value is -0.0834.

On to GACGTATA, for which the “PBM E-score” value stood at 0.0663.

Regarding ACGTCAGT, the “PBM E-score” value is -0.233.

For the sequence ACCGATAA, the “PBM E-score” value was -0.0638.
